Here are results for 115 sequences from the BET-seq Pho4 binding data (Le et al. 2018).

This is one part of the list. The energies were worked out here from pooled read counts, against the library average; single values are noisy.

This assay concerns the target T1, Pho4 (S. cerevisiae) (UniProt P07270).
T1 sequence: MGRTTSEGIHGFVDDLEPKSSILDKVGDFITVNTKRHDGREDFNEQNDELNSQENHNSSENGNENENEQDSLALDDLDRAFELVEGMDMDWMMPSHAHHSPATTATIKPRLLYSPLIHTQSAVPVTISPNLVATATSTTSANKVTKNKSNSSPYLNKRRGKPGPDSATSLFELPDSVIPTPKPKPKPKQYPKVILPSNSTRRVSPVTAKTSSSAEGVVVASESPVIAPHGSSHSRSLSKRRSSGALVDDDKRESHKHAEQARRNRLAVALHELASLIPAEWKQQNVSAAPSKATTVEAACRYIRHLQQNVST
The assay is described as follows: relative binding free energy (BET-seq); higher = weaker binding. As to conditions: reference: library average.
Take TTGGCCACGTGGTTGC: the “relative binding free energy” value is -0.06 kcal/mol.

In the case of CTTTTCACGTGCTAGT, the “relative binding free energy” value came out at 0.2 kcal/mol.

Consider CGGTTCACGTGATTTA, for which the “relative binding free energy” value is 0.52 kcal/mol.

GAATTCACGTGTATAA: the “relative binding free energy” value came to 0.34 kcal/mol.

As for ATTTTCACGTGGACGG, the “relative binding free energy” value turned out to be 0.29 kcal/mol.

CTGGGCACGTGATGGA: the “relative binding free energy” value was -0.04 kcal/mol.

As to GTACTCACGTGCGTGT, the “relative binding free energy” value stood at 0.15 kcal/mol.

Consider GAGGGCACGTGAGCGA, for which the “relative binding free energy” value is 0.07 kcal/mol.

Take ACAGTCACGTGGAGTG: the “relative binding free energy” value is -0.06 kcal/mol.

With CGTGTCACGTGTTTAA, the “relative binding free energy” value stood at 0.03 kcal/mol.

On to TACGGCACGTGTCTGG, for which the “relative binding free energy” value was -0.08 kcal/mol.

In the case of CTGTACACGTGGTGAA, the “relative binding free energy” value is -0.03 kcal/mol.

On to AGGGTCACGTGGACGC, for which the “relative binding free energy” value was determined as 0.17 kcal/mol.

Regarding GTGTTCACGTGGGCCA, the “relative binding free energy” value turned out to be 0.18 kcal/mol.

As for TATTTCACGTGGGGCC, the “relative binding free energy” value was found to be 0.39 kcal/mol.

Consider TGGCACACGTGGGTCA, for which the “relative binding free energy” value is -0.04 kcal/mol.

AGGTGCACGTGATTTC: the “relative binding free energy” value was 0.09 kcal/mol.

As to TGGCGCACGTGAGTGA, the “relative binding free energy” value is 0.15 kcal/mol.

For AATGGCACGTGGGTCT, the “relative binding free energy” value is -0.16 kcal/mol.

Take CGTGTCACGTGGATAG: the “relative binding free energy” value worked out at 0.15 kcal/mol.

In the case of AGTCGCACGTGCATGG, the “relative binding free energy” value was -0.14 kcal/mol.

As to ATTGTCACGTGACCGG, the “relative binding free energy” value stood at 0.17 kcal/mol.

GAATTCACGTGTGAAG: the “relative binding free energy” value came to 0.42 kcal/mol.

For the sequence CTTGCCACGTGGCGGG, the “relative binding free energy” value is -0.17 kcal/mol.

As for GGTCTCACGTGGAGAG, the “relative binding free energy” value stood at 0.2 kcal/mol.

Turning to TTCTACACGTGGGGGC, the “relative binding free energy” value amounted to 0.06 kcal/mol.

Take CAGAGCACGTGTTAGT: the “relative binding free energy” value turned out to be 0.02 kcal/mol.

For the sequence AAGTTCACGTGGGCCG, the “relative binding free energy” value came out at 0.25 kcal/mol.

On to TGGTACACGTGATGTC, for which the “relative binding free energy” value came to 0.18 kcal/mol.

As to ATAGTCACGTGATCTG, the “relative binding free energy” value was 0.13 kcal/mol.

Consider TAGCTCACGTGGTAGG, for which the “relative binding free energy” value came to 0.24 kcal/mol.

ACGGTCACGTGGCAGG: the “relative binding free energy” value turned out to be 0 kcal/mol.

As for AGCGACACGTGTGGGG, the “relative binding free energy” value turned out to be 0.07 kcal/mol.

With GTTGCCACGTGGGAGT, the “relative binding free energy” value is -0.25 kcal/mol.

Turning to TGGGTCACGTGGCTCT, the “relative binding free energy” value worked out at 0.13 kcal/mol.

For AGATACACGTGGAGGT, the “relative binding free energy” value came to 0.06 kcal/mol.

In the case of CGTGGCACGTGGGTGT, the “relative binding free energy” value was -0.24 kcal/mol.

As to ACGGGCACGTGTTGGG, the “relative binding free energy” value was -0.05 kcal/mol.

In the case of GAATTCACGTGGATAT, the “relative binding free energy” value stood at 0.29 kcal/mol.

As for GGTGTCACGTGTTTGT, the “relative binding free energy” value amounted to 0.17 kcal/mol.

ATAAGCACGTGTGTCT: the “relative binding free energy” value came out at 0.03 kcal/mol.

As to AGATTCACGTGAGGAT, the “relative binding free energy” value turned out to be 0.33 kcal/mol.

In the case of GATGACACGTGGGGTC, the “relative binding free energy” value was determined as 0 kcal/mol.

Take GGGCTCACGTGTTGCG: the “relative binding free energy” value was 0.26 kcal/mol.

Regarding CTGTTCACGTGGCTTT, the “relative binding free energy” value worked out at 0.18 kcal/mol.

GTTAACACGTGGATGT: the “relative binding free energy” value is -0.02 kcal/mol.

In the case of CAGGGCACGTGTGGTA, the “relative binding free energy” value was -0.08 kcal/mol.

As for AGTCTCACGTGGCGGT, the “relative binding free energy” value was 0.13 kcal/mol.

Regarding CATGTCACGTGTGGTG, the “relative binding free energy” value was 0.04 kcal/mol.

On to CGTAGCACGTGGGTAG, for which the “relative binding free energy” value was -0.24 kcal/mol.

Turning to TGCTTCACGTGGGTTG, the “relative binding free energy” value turned out to be 0.13 kcal/mol.

Regarding TGCGACACGTGGGGTC, the “relative binding free energy” value was -0.09 kcal/mol.

In the case of CTTGTCACGTGTTGGA, the “relative binding free energy” value came out at 0.13 kcal/mol.

For ATGAGCACGTGGTGCA, the “relative binding free energy” value was -0.24 kcal/mol.

TTAACCACGTGGTGTA: the “relative binding free energy” value was -0.08 kcal/mol.

Consider GAGTACACGTGTTGTT, for which the “relative binding free energy” value amounted to 0 kcal/mol.

As for TGTAGCACGTGGGGCC, the “relative binding free energy” value is -0.19 kcal/mol.

ATGGACACGTGCAGGT: the “relative binding free energy” value is -0.02 kcal/mol.

Regarding TGTTGCACGTGTTTGG, the “relative binding free energy” value stood at 0.03 kcal/mol.

As to TTTCTCACGTGGAGAG, the “relative binding free energy” value was determined as 0.33 kcal/mol.

For AAAGTCACGTGATAGT, the “relative binding free energy” value is 0.16 kcal/mol.

Take TAAATCACGTGGTGAG: the “relative binding free energy” value worked out at 0.09 kcal/mol.

Regarding TCAGGCACGTGAGGTA, the “relative binding free energy” value stood at 0.28 kcal/mol.

Turning to CATGTCACGTGTTATA, the “relative binding free energy” value is 0.17 kcal/mol.

Take ATTTTCACGTGGCTTG: the “relative binding free energy” value came out at 0.28 kcal/mol.

CTATGCACGTGAGTGT: the “relative binding free energy” value is 0.06 kcal/mol.

Turning to GGAGGCACGTGGCGGG, the “relative binding free energy” value was -0.09 kcal/mol.

With CTAGTCACGTGTGTCG, the “relative binding free energy” value came to 0.13 kcal/mol.

GGTATCACGTGTGTAA: the “relative binding free energy” value turned out to be 0.15 kcal/mol.

Turning to CTTCACACGTGGTGTT, the “relative binding free energy” value stood at 0.05 kcal/mol.

With TGATGCACGTGAGGTA, the “relative binding free energy” value was determined as 0.15 kcal/mol.

Consider AGTTTCACGTGCATTT, for which the “relative binding free energy” value stood at 0.31 kcal/mol.

As to GTAGTCACGTGCTCGG, the “relative binding free energy” value was found to be 0.01 kcal/mol.

Consider GATGTCACGTGTATTT, for which the “relative binding free energy” value amounted to 0.23 kcal/mol.

Consider CATGTCACGTGGAGGA, for which the “relative binding free energy” value came to 0.02 kcal/mol.

As to GTTAACACGTGAAGGA, the “relative binding free energy” value worked out at 0.24 kcal/mol.

Turning to AAGAGCACGTGTGATG, the “relative binding free energy” value was -0.02 kcal/mol.

Turning to GTTAACACGTGGCTGA, the “relative binding free energy” value was 0.09 kcal/mol.

Take TGACTCACGTGTATTT: the “relative binding free energy” value is 0.09 kcal/mol.

For the sequence GTTGTCACGTGCACGG, the “relative binding free energy” value came to 0.1 kcal/mol.

Consider ATTGACACGTGATGGA, for which the “relative binding free energy” value was 0.14 kcal/mol.

On to AGGGTCACGTGATCTA, for which the “relative binding free energy” value amounted to 0.43 kcal/mol.

With AATTTCACGTGGATTG, the “relative binding free energy” value was 0.17 kcal/mol.

On to TTCTTCACGTGGTCGT, for which the “relative binding free energy” value came out at 0.14 kcal/mol.

As to TGATGCACGTGAAGGT, the “relative binding free energy” value was determined as 0.13 kcal/mol.

With AGGGTCACGTGGAATT, the “relative binding free energy” value is 0.12 kcal/mol.

On to GATATCACGTGTGAAG, for which the “relative binding free energy” value turned out to be 0.2 kcal/mol.

Consider ATGCTCACGTGTATGT, for which the “relative binding free energy” value was determined as 0.12 kcal/mol.

Consider GTTGGCACGTGATTTG, for which the “relative binding free energy” value worked out at 0.09 kcal/mol.

Take GGGACCACGTGTTGAG: the “relative binding free energy” value amounted to 0.13 kcal/mol.

In the case of ATGCGCACGTGAGTTA, the “relative binding free energy” value came out at 0.15 kcal/mol.

With TGTTTCACGTGTGCAG, the “relative binding free energy” value amounted to 0.34 kcal/mol.

As to TATTTCACGTGCGGTT, the “relative binding free energy” value came out at 0.18 kcal/mol.

On to GACTGCACGTGGGGTG, for which the “relative binding free energy” value was -0.15 kcal/mol.

Take GGTCCCACGTGTTTGG: the “relative binding free energy” value is -0.01 kcal/mol.

As for AGCAGCACGTGTGTAG, the “relative binding free energy” value was found to be 0 kcal/mol.

For TTACTCACGTGTAGGA, the “relative binding free energy” value came to 0.16 kcal/mol.

GGCGTCACGTGGGTAG: the “relative binding free energy” value came out at 0.07 kcal/mol.

Take TCGTACACGTGTGTTG: the “relative binding free energy” value was -0.03 kcal/mol.

On to CGGGGCACGTGTTTAT, for which the “relative binding free energy” value is -0.12 kcal/mol.

On to GCTTTCACGTGGTAGA, for which the “relative binding free energy” value came to 0.19 kcal/mol.

Turning to GTTTGCACGTGTATCA, the “relative binding free energy” value came to 0.18 kcal/mol.

In the case of TATATCACGTGGGCAT, the “relative binding free energy” value was -0.1 kcal/mol.

Turning to ATAATCACGTGAGAGT, the “relative binding free energy” value was 0.29 kcal/mol.

Regarding GTTTACACGTGCGTTT, the “relative binding free energy” value was determined as 0.21 kcal/mol.

TATTTCACGTGTCGTA: the “relative binding free energy” value is 0.29 kcal/mol.

GGGTGCACGTGATCGG: the “relative binding free energy” value was 0.11 kcal/mol.

As to TTTTGCACGTGATCGT, the “relative binding free energy” value was 0.06 kcal/mol.

On to TGGCGCACGTGTAAGG, for which the “relative binding free energy” value was found to be 0.07 kcal/mol.

For the sequence GGTCGCACGTGGGGGT, the “relative binding free energy” value was -0.18 kcal/mol.

As to CGGTGCACGTGGGGGC, the “relative binding free energy” value is -0.14 kcal/mol.

TCGGGCACGTGTCTTT: the “relative binding free energy” value is -0.04 kcal/mol.

Turning to GGACTCACGTGAGGTA, the “relative binding free energy” value was 0.43 kcal/mol.

With ATGTACACGTGCTGGG, the “relative binding free energy” value was 0.01 kcal/mol.

On to TTAGGCACGTGCCAGT, for which the “relative binding free energy” value was -0.12 kcal/mol.
